# This is one part of the list.
# B1: GNA (Galanthus nivalis), P30617 (protein)
# chain: MAKASLLILAAIFLGVITPSCLSDNILYSGETLSTGEFLNYGSFVFIMQEDCNLVLYDVDKPIWATNTGGLSRSCFLSMQTDGNLVVYNPSNKPIWASNTGGQNGNYVCILQKDRNVVIYGTDRWATGTHTGLVGIPASPPSEKYPTAGKIKLVTAK
# Legend:
# Test in all cases: glycan array binding signal (z-score within array); higher = stronger binding
# Details in all cases: glycan notation: IUPAC condensed, linker removed
# [1] = target: Fuc(a1-2)[Gal(a1-3)]Gal(b1-3)GlcNAc(b1-3)GalNAc
# How it was run: (§1)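 Columns mapping to the same glycan were averaged after glycan names were converted to IUPAC-condensed notation. The data come from 3228 arrays in the Consortium for Functional Glycomics database, limited to those with an available protein sequence. Binding is reported as a within-array Z-score averaged across arrays of one protein sequence and across linkers.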
# [2] = target: Fuc(a1-2)[Gal(a1-3)]Gal(b1-3)GlcNAc(b1-6)GalNAc
# How it was run: as §1
# [3] = target: Fuc(a1-2)[Gal(a1-3)]Gal(b1-4)Glc
# How it was run: as §1
# [4] = target: Fuc(a1-2)[Gal(a1-3)]Gal(b1-4)GlcNAc
# How it was run: as §1
# [5] = target: Fuc(a1-2)[Gal(a1-3)]Gal(b1-4)GlcNAc(b1-2)Man
# How it was run: as §1
# [6] = target: Fuc(a1-2)[Gal(a1-3)]Gal(b1-4)GlcNAc(b1-2)Man(a1-3)[Fuc(a1-2)[Gal(a1-3)]Gal(b1-4)GlcNAc(b1-2)Man(a1-6)]Man(b1-4)GlcNAc(b1-4)GlcNAc
# How it was run: as §1
# [7] = target: Fuc(a1-2)[Gal(a1-3)]Gal(b1-4)GlcNAc(b1-2)Man(a1-3)[Fuc(a1-2)[Gal(a1-3)]Gal(b1-4)GlcNAc(b1-2)Man(a1-6)]Man(b1-4)GlcNAc(b1-4)[Fuc(a1-6)]GlcNAc
# How it was run: as §1
# [8] = target: Fuc(a1-2)[Gal(a1-3)]Gal(b1-4)GlcNAc(b1-3)GalNAc
# How it was run: as §1
# [9] = target: Fuc(a1-2)[Gal(a1-3)]Gal(b1-4)GlcNAc(b1-3)[Fuc(a1-2)[Gal(a1-3)]Gal(b1-4)GlcNAc(b1-6)]GalNAc
# How it was run: as §1
# [10] = target: Fuc(a1-2)[Gal(a1-3)]Gal(b1-4)GlcNAc(b1-6)GalNAc
# How it was run: as §1
# [11] = target: Fuc(a1-2)[Gal(a1-3)]Gal(b1-4)[Fuc(a1-3)]Glc
# How it was run: as §1
# [12] = target: Fuc(a1-2)[Gal(a1-3)]Gal(b1-4)[Fuc(a1-3)]GlcNAc
# How it was run: as §1
# [13] = target: Fuc(a1-2)[Gal(a1-3)]Gal(b1-4)[Fuc(a1-3)]GlcNAc(b1-3)GalNAc
# How it was run: as §1
# [14] = target: Fuc(a1-2)[Gal(a1-4)]Gal(b1-4)GlcNAc
# How it was run: as §1
# [15] = target: Fuc(a1-2)[GalNAc(a1-3)]Gal
# How it was run: as §1
# [16] = target: Fuc(a1-2)[GalNAc(a1-3)]Gal(b1-3)GalNAc(a1-3)[Fuc(a1-2)]Gal(b1-4)GlcNAc
# How it was run: as §1
# [17] = target: Fuc(a1-2)[GalNAc(a1-3)]Gal(b1-3)GalNAc(b1-3)Gal(a1-4)Gal(b1-4)Glc
# How it was run: as §1
# [18] = target: Fuc(a1-2)[GalNAc(a1-3)]Gal(b1-3)GlcNAc
# How it was run: as §1
# [19] = target: Fuc(a1-2)[GalNAc(a1-3)]Gal(b1-3)GlcNAc(b1-2)Man(a1-3)[Fuc(a1-2)[GalNAc(a1-3)]Gal(b1-3)GlcNAc(b1-2)Man(a1-6)]Man(b1-4)GlcNAc(b1-4)GlcNAc
# How it was run: as §1
# [20] = target: Fuc(a1-2)[GalNAc(a1-3)]Gal(b1-3)GlcNAc(b1-2)Man(a1-3)[Fuc(a1-2)[GalNAc(a1-3)]Gal(b1-3)GlcNAc(b1-2)Man(a1-6)]Man(b1-4)GlcNAc(b1-4)[Fuc(a1-6)]GlcNAc
# How it was run: as §1
# [21] = target: Fuc(a1-2)[GalNAc(a1-3)]Gal(b1-3)GlcNAc(b1-3)GalNAc
# How it was run: as §1
# [22] = target: Fuc(a1-2)[GalNAc(a1-3)]Gal(b1-3)GlcNAc(b1-6)GalNAc
# How it was run: as §1
# [23] = target: Fuc(a1-2)[GalNAc(a1-3)]Gal(b1-4)Glc
# How it was run: as §1
# [24] = target: Fuc(a1-2)[GalNAc(a1-3)]Gal(b1-4)GlcNAc
# How it was run: as §1
# [25] = target: Fuc(a1-2)[GalNAc(a1-3)]Gal(b1-4)GlcNAc(b1-2)Man
# How it was run: as §1
# [26] = target: Fuc(a1-2)[GalNAc(a1-3)]Gal(b1-4)GlcNAc(b1-2)Man(a1-3)[Fuc(a1-2)[GalNAc(a1-3)]Gal(b1-4)GlcNAc(b1-2)Man(a1-6)]Man(b1-4)GlcNAc(b1-4)GlcNAc
# How it was run: as §1
# [27] = target: Fuc(a1-2)[GalNAc(a1-3)]Gal(b1-4)GlcNAc(b1-2)Man(a1-3)[Fuc(a1-2)[GalNAc(a1-3)]Gal(b1-4)GlcNAc(b1-2)Man(a1-6)]Man(b1-4)GlcNAc(b1-4)[Fuc(a1-6)]GlcNAc
# How it was run: as §1
# [28] = target: Fuc(a1-2)[GalNAc(a1-3)]Gal(b1-4)GlcNAc(b1-2)Man(a1-3)[GalNAc(a1-3)[Fuc(a1-2)]Gal(b1-4)GlcNAc(b1-2)Man(a1-6)]Man(b1-4)GlcNAc(b1-4)GlcNAc
# How it was run: as §1
# [29] = target: Fuc(a1-2)[GalNAc(a1-3)]Gal(b1-4)GlcNAc(b1-3)Gal(b1-4)GlcNAc
# How it was run: as §1
# [30] = target: Fuc(a1-2)[GalNAc(a1-3)]Gal(b1-4)GlcNAc(b1-3)Gal(b1-4)GlcNAc(b1-3)Gal(b1-4)GlcNAc
# How it was run: as §1
# [31] = target: Fuc(a1-2)[GalNAc(a1-3)]Gal(b1-4)GlcNAc(b1-3)GalNAc
# How it was run: as §1
# [32] = target: Fuc(a1-2)[GalNAc(a1-3)]Gal(b1-4)GlcNAc(b1-3)[Fuc(a1-2)[GalNAc(a1-3)]Gal(b1-4)GlcNAc(b1-6)]GalNAc
# How it was run: as §1
# [33] = target: Fuc(a1-2)[GalNAc(a1-3)]Gal(b1-4)GlcNAc(b1-6)GalNAc
# How it was run: as §1
# [34] = target: Fuc(a1-2)[GalNAc(a1-3)]Gal(b1-4)[Fuc(a1-3)]GlcNAc
# How it was run: as §1
# [35] = target: Fuc(a1-2)[GalNAc(a1-3)]Gal(b1-4)[Fuc(a1-3)]GlcNAc(b1-3)GalNAc
# How it was run: as §1
# [36] = target: Fuc(a1-2)[GalNAc(a1-4)]Gal(b1-4)GlcNAc
# How it was run: as §1
# [37] = target: Fuc(a1-2)[GalNAc(b1-3)]Gal
# How it was run: as §1
# Fuc(a1-3)GlcNAc = target: Fuc(a1-3)GlcNAc
# How it was run: as §1
# [38] = target: Fuc(a1-3)[Gal(b1-4)]Glc6S
# How it was run: as §1
# [39] = target: Fuc(a1-3)[Gal(b1-4)]GlcNAc
# How it was run: as §1
# [40] = target: Fuc(a1-3)[Gal(b1-4)]GlcNAc(b1-2)Man
# How it was run: as §1
# [41] = target: Fuc(a1-3)[Gal(b1-4)]GlcNAc(b1-2)Man(a1-3)[Fuc(a1-3)[Gal(b1-4)]GlcNAc(b1-2)Man(a1-6)]Man(b1-4)GlcNAc(b1-4)GlcNAc
# How it was run: as §1
# [42] = target: Fuc(a1-3)[Gal(b1-4)]GlcNAc(b1-2)Man(a1-3)[Fuc(a1-3)[Gal(b1-4)]GlcNAc(b1-2)Man(a1-6)]Man(b1-4)GlcNAc(b1-4)[Fuc(a1-6)]GlcNAc
# How it was run: as §1
# [43] = target: Fuc(a1-3)[Gal(b1-4)]GlcNAc(b1-2)Man(a1-6)[Gal(b1-4)GlcNAc(b1-2)Man(a1-3)]Man(b1-4)GlcNAc(b1-4)GlcNAc
# How it was run: as §1
# [44] = target: Fuc(a1-3)[Gal(b1-4)]GlcNAc(b1-3)Gal(b1-3)[Fuc(a1-4)]GlcNAc
# How it was run: as §1
binder,measurement,setting,value
B1,glycan array binding signal (z-score),[1],-0.163
same,glycan array binding signal (z-score),[2],-0.169
same,glycan array binding signal (z-score),[3],-0.161
same,glycan array binding signal (z-score),[4],-0.241
same,glycan array binding signal (z-score),[5],-0.148
same,glycan array binding signal (z-score),[6],-0.178
same,glycan array binding signal (z-score),[7],0.168
same,glycan array binding signal (z-score),[8],-0.153
same,glycan array binding signal (z-score),[9],-0.171
same,glycan array binding signal (z-score),[10],-0.167
same,glycan array binding signal (z-score),[11],-0.16
same,glycan array binding signal (z-score),[12],-0.165
same,glycan array binding signal (z-score),[13],-0.127
same,glycan array binding signal (z-score),[14],-0.231
same,glycan array binding signal (z-score),[15],-0.231
same,glycan array binding signal (z-score),[16],-0.159
same,glycan array binding signal (z-score),[17],-0.174
same,glycan array binding signal (z-score),[18],-0.207
same,glycan array binding signal (z-score),[19],-0.127
same,glycan array binding signal (z-score),[20],0.259
same,glycan array binding signal (z-score),[21],-0.168
same,glycan array binding signal (z-score),[22],-0.18
same,glycan array binding signal (z-score),[23],-0.22
same,glycan array binding signal (z-score),[24],-0.246
same,glycan array binding signal (z-score),[25],-0.17
same,glycan array binding signal (z-score),[26],-0.12
same,glycan array binding signal (z-score),[27],0.348
same,glycan array binding signal (z-score),[28],-0.118
same,glycan array binding signal (z-score),[29],-0.22
same,glycan array binding signal (z-score),[30],-0.127
same,glycan array binding signal (z-score),[31],-0.155
same,glycan array binding signal (z-score),[32],-0.182
same,glycan array binding signal (z-score),[33],-0.175
same,glycan array binding signal (z-score),[34],-0.138
same,glycan array binding signal (z-score),[35],-0.117
same,glycan array binding signal (z-score),[36],-0.245
same,glycan array binding signal (z-score),[37],-0.188
same,glycan array binding signal (z-score),Fuc(a1-3)GlcNAc,-0.203
same,glycan array binding signal (z-score),[38],-0.095
same,glycan array binding signal (z-score),[39],-0.098
same,glycan array binding signal (z-score),[40],-0.173
same,glycan array binding signal (z-score),[41],-0.111
same,glycan array binding signal (z-score),[42],-0.141
same,glycan array binding signal (z-score),[43],-0.666
same,glycan array binding signal (z-score),[44],-0.219

# Reference: the supplement of paper PMC8728848
